Measured values taken from patent US6284456, “Transcriptional coactivator that interacts with Tat protein and regulates its binding to TAR RNA, methods for modulating Tat transactivation, and uses therefor” (The Salk Institute for Biological Studies, dated 2001).

Molecular target: GST (glutathione S-transferase) on glutathione beads (Schistosoma japonicum (Blood fluke), UniProt P08515 = GST)
Assay: glutathione bead pull-down of recombinant cyclin T1, immunoblot

B1: recombinant cyclin T1, thrombin-cleaved from GST-cyclin T1 (other)
chain: [letters of about 300 residues omitted]TILNMISQSSSDTTIAGLMSMSTSTTSAVPSLPVSEESSSNLTSVEMLPGKRWLSSQPSFKLEPTQGHRTSENLALTGVDHSLPQDGSNAFISQKQNSKSVPSAKVSLKEYRAKHAEELAAQKRQLENMEANVKSQYAYAAQNLLSHHDSHSSVILKMPIEGSENPERPFLEKADKTALKMRIPVAGGDKAASSKPEEIKMRIKVHAAADKHNSVEDSVTKSREHKEKHKTHPSNHHHHHNHHSHKHSHSQLPVGTGNKRPGDPKHSSQTSNLAHKTYSLSSSFSSSSSTRKRGPSEETGGAVFDHPAKIAKSTKSSSLNFSFPSLPTMGQMPGHSSDTSGLSFSQPSCKTRVPHSKLDKGPTGANGHNTTQTIDYQDTVNMLHSLLSAQGVQPTQPTAFEFVRPYSDYLNPRSGGISSRSGNTDKPRPPPLPSEPPPPLPPLPK
- binding result: no binding
